About 2,200 (0.71%) of roughly 310,000 compounds showed an effect of 50% or more. The effect is printed as a negative number. The list shows a part of the results.
target: human ether-à-go-go-related gene (hERG) potassium channel (human, UniProt Q12809); assay: primary screen, population patch clamp on CHO cells stably expressing hERG
Sequence (Q12809 whole entry, looked up): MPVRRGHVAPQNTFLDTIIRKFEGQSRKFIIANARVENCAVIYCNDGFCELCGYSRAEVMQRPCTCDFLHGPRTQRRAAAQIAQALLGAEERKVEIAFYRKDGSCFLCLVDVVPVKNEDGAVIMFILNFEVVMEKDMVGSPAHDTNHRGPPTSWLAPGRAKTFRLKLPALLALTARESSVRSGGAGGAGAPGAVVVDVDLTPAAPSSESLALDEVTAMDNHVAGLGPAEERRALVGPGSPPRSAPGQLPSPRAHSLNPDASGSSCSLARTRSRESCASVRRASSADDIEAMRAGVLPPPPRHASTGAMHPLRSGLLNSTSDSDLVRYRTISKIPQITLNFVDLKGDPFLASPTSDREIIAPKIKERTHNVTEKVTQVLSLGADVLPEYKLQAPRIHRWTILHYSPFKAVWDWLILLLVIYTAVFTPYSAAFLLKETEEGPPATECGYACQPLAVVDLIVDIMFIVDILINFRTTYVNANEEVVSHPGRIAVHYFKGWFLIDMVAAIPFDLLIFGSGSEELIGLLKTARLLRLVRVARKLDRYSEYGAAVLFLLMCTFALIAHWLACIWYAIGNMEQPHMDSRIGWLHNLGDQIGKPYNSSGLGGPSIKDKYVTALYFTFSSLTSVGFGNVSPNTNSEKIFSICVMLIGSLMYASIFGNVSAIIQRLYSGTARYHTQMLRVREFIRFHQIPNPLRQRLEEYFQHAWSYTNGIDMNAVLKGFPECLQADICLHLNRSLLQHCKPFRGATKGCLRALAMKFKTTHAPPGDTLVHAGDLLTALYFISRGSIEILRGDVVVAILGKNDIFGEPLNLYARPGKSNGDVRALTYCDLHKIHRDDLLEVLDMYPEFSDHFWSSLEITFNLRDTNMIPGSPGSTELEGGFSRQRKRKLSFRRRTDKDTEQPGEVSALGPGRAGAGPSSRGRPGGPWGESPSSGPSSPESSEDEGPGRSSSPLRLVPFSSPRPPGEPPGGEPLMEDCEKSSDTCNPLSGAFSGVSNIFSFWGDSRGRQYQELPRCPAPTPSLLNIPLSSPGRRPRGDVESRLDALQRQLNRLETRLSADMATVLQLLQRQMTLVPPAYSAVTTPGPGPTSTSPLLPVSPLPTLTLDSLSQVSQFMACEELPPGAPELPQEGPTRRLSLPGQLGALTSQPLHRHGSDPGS

Row | SMILES | hERG current change (%, negative = inhibition) at 1uM [%]
1 | Cc1c(Cl)cccc1NC(=S)N(Cc1cccs1)C1CCCC1 | 11.6
2 | COc1ccc(S(=O)(=O)CCC(=O)Nc2cc(C)ccc2OC)cc1 | -2.28
3 | COc1cc(/C=C2/SC(=S)N(c3ccccc3)C2=O)ccc1Oc1nc(N2CCOCC2)nc(N2CCOCC2)n1 | 4.11
4 | CN=c1scc(C)n1/N=C/c1cc(Br)c(O)c(Br)c1 | 3.22
5 | CCO[C@H]1OC(C(=O)NC2CC2)=C[C@@H](c2ccc(C(F)(F)F)cc2)[C@@H]1CCCO | -11.9
6 | CCC1C(=O)C(C)(C)C(=O)OC1c1ccc([N+](=O)[O-])cc1 (centres unmarked) | 9.82
7 | Cc1ccc(Cn2c(CCNc3nc(-c4ccc(Cl)c([N+](=O)[O-])c4)cs3)nc3cc(Cl)c(Cl)cc32)cc1 | 6.04
8 | CCOC(=O)c1cc(-c2ccccc2)nc2nc(N(CC)CC)sc12 | 13.4
9 | Cc1ccc(-n2c(=O)[nH]c3c(C(N)=O)nc(C(C)C)nc32)cc1 | 9.4
10 | COc1cc2c3nnc(-c4ccccc4)c-3cn(Cc3ccc(F)cc3)c2cc1OC | -26
11 | CCCNC(=O)c1ccccc1NC(=O)CN(c1ccccc1)S(=O)(=O)N(C)C | 2.44
12 | O=C(COC(=O)c1cc(F)cc(F)c1)Nc1cccnc1Cl | 2.62
13 | Cc1ccc(C(=O)Oc2cccc(NC(=O)c3ccccc3)c2)cc1C | 19.9
14 | Cc1nnc2sc(SCc3cccc(Cl)c3)nn2c1=O | -4.35
15 | O=C(NCCc1c[nH]c2ccccc12)C1CCC(=O)N(CCc2cccc(F)c2)C1 (centres unmarked) | 11.4
16 | C1CNCCN1.C[C@]12CC[C@@H]3c4ccc(OS(=O)(=O)O)cc4CC[C@H]3[C@@H]1CCC2=O | 15.7
17 | O=S(=O)(Nc1cccnc1Cl)c1ccc(-c2ccccc2)cc1 | 14.1
18 | CC(C)Cc1nnc(NC(=O)CCC(=O)NC2CC2)s1 | 18.9
19 | C=CCN=C(NC#N)SCC(=O)NC(C)(C)C | 7.91
20 | Cc1cccnc1NC(=O)c1ccc(NS(=O)(=O)c2ccc3[nH]c(=O)[nH]c3c2)cc1 | -3.65
21 | O=C(Nc1cnc2ccccn2c1=O)c1ccc(F)cc1 | 10.6
22 | O=C(NO)C1CC2C=CC1C2 (centres unmarked) | 11.2

Row | SMILES | hERG current change (%, negative = inhibition) at 1uM [%]
23 | CCn1cc([N+](=O)[O-])c(C(=O)Nc2ccn(Cc3ccccc3F)n2)n1 | 13.4
24 | COc1ccc(CC(=O)Nc2nc(-c3cccc([N+](=O)[O-])c3)cs2)cc1 | 8.71
25 | Cc1ccc(OCC(=O)Nc2cccc(O)c2)cc1C | 6.45
26 | COc1ccc(S(=O)(=O)N(C)CC(=O)NC2CC2)cc1OC | 15.2
27 | CCN1CCN(C(=O)c2cc3cc(Cl)ccc3[nH]2)CC1 | -8.42
28 | CC(=O)Nc1ccc(S(=O)(=O)N2CCN(S(=O)(=O)N3CCCCC3)CC2)cc1 | 7.5
29 | N#Cc1c2n(c3c(-c4ccccc4)ncnc13)CCC2 | 9.7
30 | Cc1cccc(N=Cc2c(O)cc(C)oc2=O)c1 | 4.56
31 | Cc1ccc2c(c1)nnn2C1CCN(S(C)(=O)=O)CC1 | -23.1
32 | O=c1[nH]c2c(s1)C(c1cccnc1)C1C3CCC(C3)C1S2 (centres unmarked) | 3.15
33 | Cc1ccc(C)c(NC(=S)NC2CC3CCCC(C2)N3CC(C)C)c1 (centres unmarked) | -1.85
34 | CCCCC(=O)Nc1ccc(C(=O)N2CCN(C)CC2)cc1 | 10.7
35 | COc1ccc(-c2nnn(CC#N)n2)cc1OC | 9.57
36 | O=C(N/N=C/c1c(O)n(Cc2ccco2)c(=O)[nH]c1=O)c1ccccc1O | 8.67
37 | O=C(O)CCn1nnc2ccccc21 | 7.98
38 | CC(C)(C)c1nnc(NC(=O)Cc2ccc(Br)cc2)s1 | 12.5
39 | COc1cccc(OCCNC(=O)c2ccccc2Sc2ccccc2C#N)c1 | 10
40 | Cc1ccc2cc(C3CC(c4cccs4)=NN3S(C)(=O)=O)c(Cl)nc2c1 (centres unmarked) | 8.28
41 | Cc1ccc(N=C(N(C)C)P(=O)(N(C)C)N(C)C)c(C)c1 | 7.77
42 | CC(=O)N1CCCN(Cc2cn(-c3cccc(C)c3)nc2-c2cccc(F)c2)CC1 | 6.18
43 | CC(=O)C[C@H](O)CC(=O)[C@H]1OC(=O)CCCCCCCc2ccccc21 | 9.33
44 | O=C(CSc1nc(=O)n2ccccc2n1)N1N=C(c2cccs2)CC1c1ccc(F)cc1 (centres unmarked) | 5.37

Reference: paper PMC4336329 (PLoS ONE, 2015)
